Experimental data taken from patent publication US7423058B2, “Inhibitors of hepatitis C virus NS3 protease” (Schering Corporation, priority 2004, dated 2008).

Each compound was assayed against Recombinant heterodimeric HCV NS3/NS4A protease (strain 1a) (Hepatitis C virus genotype 1a, UniProt P27958) (assay: Spectrophotometric assay for HCV protease inhibitory activity (chromogenic ester substrates)). Conditions: Table 1: Ketones; read-out: Ki* Range.
Type: biochemical

`CC1(C)[C@@H]2[C@@H](C(=O)NC(CC3CC3)C(=O)C(N)=O)N(C(=O)[C@@H](NC(=O)N[C@H](C(=O)C3CC3)C3CCCCC3)C3Cc4ccccc4C3)C[C@@H]21` (stereo partly shown) [compound 4092] and `CC(C)[C@H](OC(=O)N[C@H](C(=O)N1C[C@H]2[C@@H]([C@H]1C(=O)NC(CC1CC1)C(=O)C(N)=O)C2(C)C)C1CCCCC1)C(=O)c1ccccc1` (stereo partly shown) [compound 4163] cannot be ordered by Ki: under 75 nM for the first, under 75 nM for the second.

`C=CCNC(=O)C(=O)C(CC1CC1)NC(=O)[C@@H]1[C@@H]2[C@H](CN1C(=O)[C@@H](NC(=O)N[C@H](C(=O)C1CC1)C(C)C)C(C)(C)C)C2(C)C` (stereo partly shown) [compound 4135] and `CCNC(=O)C(=O)C(CC1CC1)NC(=O)[C@@H]1[C@@H]2[C@H](CN1C(=O)[C@@H](NC(=O)N[C@H](C(=O)C1CC1)C(C)C)C(C)(C)C)C2(C)C` (stereo partly shown) [compound 4167] cannot be ordered by Ki: under 75 nM for the first, under 75 nM for the second.

`COc1cccc(C(=O)[C@@H](NC(=O)N[C@H](C(=O)N2C[C@H]3[C@@H]([C@H]2C(=O)NC(CC2CC2)C(=O)C(N)=O)C3(C)C)C(C)(C)C)C(C)C)c1` (stereo partly shown) [compound 4094] and `CC(C)[C@H](NC(=O)N[C@H](C(=O)N1C[C@H]2[C@@H]([C@H]1C(=O)NC(CC1CC1)C(=O)C(N)=O)C2(C)C)C(C)(C)C)C(=O)c1cccnc1` (stereo partly shown) [compound 4078] cannot be ordered by Ki: under 75 nM for the first, under 75 nM for the second.

`CC(C)[C@@H](CC(=O)C1CC1)NC(=O)N[C@H](C(=O)N1C[C@H]2[C@@H]([C@H]1C(=O)NC(CC1CC1)C(=O)C(N)=O)C2(C)C)C(C)(C)C` (stereo partly shown) [compound 4037] and `CC(C)[C@H](NC(=O)N[C@H](C(=O)N1C[C@H]2[C@@H]([C@H]1C(=O)NC(CC1CC1)C(=O)C(N)=O)C2(C)C)C(C)(C)C)C(=O)c1ccc[nH]1` (stereo partly shown) [compound 4059] cannot be ordered by Ki: under 75 nM for the first, under 75 nM for the second.

`Cc1cccc(C(=O)[C@@H](NC(=O)N[C@H](C(=O)N2C[C@H]3[C@@H]([C@H]2C(=O)NC(CC2CC2)C(=O)C(N)=O)C3(C)C)C(C)(C)C)C(C)C)n1` (stereo partly shown) [compound 4113] and `CNC(=O)C(=O)C(CC1CC1)NC(=O)[C@@H]1[C@@H]2[C@H](CN1C(=O)[C@@H](NC(=O)N[C@H](C(=O)c1ccccc1)C(C)C)C(C)(C)C)C2(C)C` (stereo partly shown) [compound 4152] cannot be ordered by Ki: under 75 nM for the first, under 75 nM for the second.

First: CC(C)(C)[C@H](NC(=O)N[C@H](C(=O)N1C[C@H]2[C@@H]([C@H]1C(=O)NC(CC1CC1)C(=O)C(N)=O)C2(C)C)C(C)(C)C)C(=O)c1nccs1 (stereo partly shown) [compound 4148]
Second: C=CCNC(=O)C(=O)C(CCCC)NC(=O)[C@@H]1[C@@H]2[C@H](CN1C(=O)[C@@H](NC(=O)N[C@H](C(=O)c1ccco1)C(C)C)C(C)(C)C)C2(C)C (stereo partly shown) [compound 4189]
The Ki of the first is lower: under 75 nM for the first, 76 to 250 nM for the second. The first binds more tightly here.

Same assay, conditions: Table 3, Esters; read-out: Ki* Range

`CC(C)(C)[C@H](NC(=O)NC1(C(=O)OCC2CC2)CCCCC1)C(=O)N1C[C@H]2[C@@H]([C@H]1C(=O)NC(CC1CC1)C(=O)C(N)=O)C2(C)C` (stereo partly shown) [compound 4447] and `COc1ccc(COC(=O)C2(NC(=O)N[C@H](C(=O)N3C[C@H]4[C@@H]([C@H]3C(=O)NC(CC3CCC3)C(=O)C(N)=O)C4(C)C)C(C)(C)C)CCCCC2)cc1` (stereo partly shown) [compound 4482] cannot be ordered by Ki: under 75 nM for the first, under 75 nM for the second.

`C=CCNC(=O)C(=O)C(CC1CC1)NC(=O)[C@@H]1[C@@H]2[C@H](CN1C(=O)[C@@H](NC(=O)N[C@H](C(=O)OC(C)(C)C)C(C)(C)C)C(C)(C)C)C2(C)C` (stereo partly shown) [compound 4478] and `CC(C)(C)OC(=O)[C@@H](NC(=O)N[C@H](C(=O)N1C[C@H]2[C@@H]([C@H]1C(=O)NC(CC1CC1)C(=O)C(N)=O)C2(C)C)C(C)(C)C)C(C)(C)C` (stereo partly shown) [compound 4388] cannot be ordered by Ki: under 75 nM for the first, under 75 nM for the second.

First: COC(=O)C1(NC(=O)N[C@H](C(=O)N2C[C@H]3[C@@H]([C@H]2C(=O)NC(CC2CCC2)C(=O)C(N)=O)C3(Cl)Cl)C2CCCCC2)CCCC1 (stereo partly shown) [compound 4581]
Second: CC1(C)[C@@H]2[C@@H](C(=O)NC(CC3CCC3)C(=O)C(N)=O)N(C(=O)[C@@H](NC(=O)NC3(C(=O)OCc4ccc5ccccc5c4)CCCCC3)C3CCCCC3)C[C@@H]21 (stereo partly shown) [compound 4651]
The Ki of the first is lower: 76 to 250 nM for the first, over 250 nM for the second. The first binds more tightly here.

`CC(C)[C@](C)(NC(=O)N[C@H](C(=O)N1C[C@H]2[C@@H]([C@H]1C(=O)NC(CC1CC1)C(=O)C(N)=O)C2(C)C)C1CCCCC1)C(=O)OCc1ccccc1` (stereo partly shown) [compound 4451] and `CC(C)(C)[C@H](NC(=O)N[C@H](C(=O)OCc1ccccc1)C1CCCC1)C(=O)N1C[C@H]2[C@@H]([C@H]1C(=O)NC(CC1CCC1)C(=O)C(N)=O)C2(C)C` (stereo partly shown) [compound 4356] cannot be ordered by Ki: under 75 nM for the first, under 75 nM for the second.

`C=CCNC(=O)C(=O)C(CCCC)NC(=O)[C@@H]1[C@@H]2[C@H](CN1C(=O)[C@@H](NC(=O)N[C@H](C(=O)O[C@@H](C)c1ccccc1)C(C)(C)C)C(C)(C)C)C2(C)C` (stereo partly shown) [compound 4579] and `C=CCNC(=O)C(=O)C(CCC)NC(=O)[C@@H]1[C@@H]2[C@H](CN1C(=O)[C@@H](NC(=O)N[C@H](C(=O)OCc1ccccc1)C(C)(C)C)C(C)(C)C)C2(C)C` (stereo partly shown) [compound 4573] fall in the same range of Ki: 76 to 250 nM for the first, 76 to 250 nM for the second.

First: CC(C)(C)OC(=O)CCNC(=O)C(=O)[C@H](CC1CC1)NC(=O)[C@@H]1[C@@H]2[C@H](CN1C(=O)[C@@H](NC(=O)N[C@H](C(=O)OCc1ccccc1)C1CCCC1)C(C)(C)C)C2(C)C [compound 4549]
Second: CC(C)(C)[C@H](NC(=O)N[C@H](C(=O)OCc1ccccc1)C1CC1)C(=O)N1C[C@H]2[C@@H]([C@H]1C(=O)NC(CC1CC1)C(=O)C(N)=O)C2(C)C (stereo partly shown) [compound 4321]
The Ki of the first is higher: 76 to 250 nM for the first, under 75 nM for the second. The second binds more tightly here.

First: CC(C)(C)[C@H](NC(=O)N[C@H](C(=O)N1C[C@H]2[C@@H]([C@H]1C(=O)NC(CC1CCC1)C(=O)C(N)=O)C2(Cl)Cl)C(C)(C)C)C(=O)OCc1ccccc1 (stereo partly shown) [compound 4630]
Second: CC(C)OC(=O)[C@@H](NC(=O)N[C@H](C(=O)N1C[C@H]2[C@@H]([C@H]1C(=O)NC(CC1CC1)C(=O)C(N)=O)C2(Cl)Cl)C(C)(C)C)C(C)(C)C (stereo partly shown) [compound 4429]
The Ki of the first is higher: over 250 nM for the first, under 75 nM for the second.

`C=CCNC(=O)C(=O)C(CCC(F)(F)F)NC(=O)[C@@H]1[C@@H]2[C@H](CN1C(=O)[C@@H](NC(=O)N[C@H](C(=O)OC(C)(C)C)C(C)C)C(C)(C)C)C2(C)C` (stereo partly shown) [compound 4479] and `C=CCNC(=O)C(=O)C(CCC)NC(=O)[C@@H]1[C@@H]2[C@H](CN1C(=O)[C@@H](NC(=O)N[C@H](C(=O)OC(C)(C)C)C(C)C)C(C)(C)C)C2(C)C` (stereo partly shown) [compound 4389] cannot be ordered by Ki: under 75 nM for the first, under 75 nM for the second.

`C=CCNC(=O)C(=O)C(CCC)NC(=O)[C@@H]1[C@@H]2[C@H](CN1C(=O)[C@@H](NC(=O)N[C@H](C(=O)OC(C)(C)C)C(C)C)C1CCCC1)C2(C)C` (stereo partly shown) [compound 4525] and `C=CCNC(=O)C(=O)C(CCCC)NC(=O)[C@@H]1[C@@H]2[C@H](CN1C(=O)[C@@H](NC(=O)N[C@H](C(=O)OC(C)C)C(C)(C)C)C1CCCCC1)C2(C)C` (stereo partly shown) [compound 4402] cannot be ordered by Ki: under 75 nM for the first, under 75 nM for the second.

First: CC(C)(C)OC(=O)[C@@H](NC(=O)N[C@H](C(=O)N1C[C@H]2[C@@H]([C@H]1C(=O)NC(CC1CC1(F)F)C(=O)C(N)=O)C2(C)C)C(C)(C)C)C(C)(C)C (stereo partly shown) [compound 4433]
Second: CC(C)NC(=O)C(=O)C(CC1CC1)NC(=O)[C@@H]1[C@@H]2[C@H](CN1C(=O)[C@@H](NC(=O)N[C@H](C(=O)OC(C)(C)C)C(C)(C)C)C(C)(C)C)C2(C)C (stereo partly shown) [compound 4662]
The Ki of the first is lower: under 75 nM for the first, over 250 nM for the second. The first binds more tightly here.

`CC(C)(C)[C@H](NC(=O)N[C@H](C(=O)N1C[C@H]2[C@@H]([C@H]1C(=O)NC(CC1CC1)C(=O)C(N)=O)C2(C)C)C(C)(C)C)C(=O)OC1CCC1` (stereo partly shown) [compound 4423] and `CC(C)[C@H](NC(=O)N[C@H](C(=O)N1C[C@H]2[C@@H]([C@H]1C(=O)NC(CC1CC1)C(=O)C(N)=O)C2(C)C)C(C)(C)C)C(=O)OCC1CC1` (stereo partly shown) [compound 4358] cannot be ordered by Ki: under 75 nM for the first, under 75 nM for the second.

Compared with `CCNC(=O)C(=O)C(CC1CC1)NC(=O)[C@@H]1[C@@H]2[C@H](CN1C(=O)[C@@H](NC(=O)N[C@H](C(=O)OC(C)(C)C)C(C)C)C(C)(C)C)C2(C)C` (stereo partly shown) [compound 4587], `C=CCNC(=O)C(=O)C(CCCC)NC(=O)[C@@H]1[C@@H]2[C@H](CN1C(=O)[C@@H](NC(=O)N[C@H](C(=O)OC(C1CC1)C1CC1)C(C)C)C(C)(C)C)C2(C)C` (stereo partly shown) [compound 4406] is lower in Ki: 76 to 250 nM for the first, under 75 nM for the second.

`CC(C)(C)[C@H](NC(=O)N[C@H](C(=O)OCc1ccccc1)C1(C(F)(F)F)CC1)C(=O)N1C[C@H]2[C@@H]([C@H]1C(=O)NC(CC1CC1)C(=O)C(N)=O)C2(C)C` (stereo partly shown) [compound 4363] and `CC(C)(C)[C@H](NC(=O)N[C@H](C(=O)OCC1CC1)C1(C(F)(F)F)CC1)C(=O)N1C[C@H]2[C@@H]([C@H]1C(=O)NC(CC1CCC1)C(=O)C(N)=O)C2(C)C` (stereo partly shown) [compound 4382] cannot be ordered by Ki: under 75 nM for the first, under 75 nM for the second.

`C#CCCC(NC(=O)[C@@H]1[C@@H]2[C@H](CN1C(=O)[C@@H](NC(=O)N[C@H](C(=O)OC(C)(C)C)C(C)(C)C)C(C)(C)C)C2(C)C)C(=O)C(=O)NCC=C` (stereo partly shown) [compound 4379] and `C=CCNC(=O)C(=O)C(CCC)NC(=O)[C@@H]1[C@@H]2[C@H](CN1C(=O)[C@@H](NC(=O)N[C@H](C(=O)OCC1CC1)C1CC1)C(C)(C)C)C2(C)C` (stereo partly shown) [compound 4513] cannot be ordered by Ki: under 75 nM for the first, under 75 nM for the second.

First: C=CCNC(=O)C(=O)C(CCC)NC(=O)[C@@H]1[C@@H]2[C@H](CN1C(=O)[C@@H](NC(=O)N[C@H](C(=O)OCc1ccccc1)[C@@H](C)CC)C(C)(C)C)C2(C)C (stereo partly shown) [compound 4576]
Second: C=CCNC(=O)C(=O)C(CCC)NC(=O)[C@@H]1[C@@H]2[C@H](CN1C(=O)[C@@H](NC(=O)N[C@H](C(=O)OCc1ccccc1)C1CCC1)C(C)(C)C)C2(C)C (stereo partly shown) [compound 4400]
The Ki of the first is higher: 76 to 250 nM for the first, under 75 nM for the second.

Compound `CCCCC(NC(=O)[C@@H]1[C@H]2CC(C)(C)O[C@H]2CN1C(=O)[C@@H](NC(=O)N[C@H](C(=O)OC(C)C)C(C)(C)C)C(C)(C)C)C(=O)C(=O)NCCC(=O)OC(C)(C)C` (stereo partly shown) [compound 4596] has a Ki of 76 to 250 nM.

Same assay, conditions: Table 6; read-out: Ki* range

`CCCCC(NC(=O)[C@@H]1[C@@H]2[C@H](CN1C(=O)[C@@H](NC(=O)NC1(Cc3ccccn3)CCCCC1)C(C)(C)C)C2(C)C)C(=O)C(N)=O` (stereo partly shown) [compound 4962] and `CC(C)(C)[C@H](NC(=O)NC1(Cc2cccc(OCc3ccccc3)c2)CCCCC1)C(=O)N1C[C@H]2[C@@H]([C@H]1C(=O)NC(CC1CC1)C(=O)C(N)=O)C21CCCC1` (stereo partly shown) [compound 4982] fall in the same range of Ki: 76 to 250 nM for the first, 76 to 250 nM for the second.

Compound `C=CCNC(=O)C(=O)C(CCCC)NC(=O)[C@@H]1[C@@H]2[C@H](CN1C(=O)[C@@H](NC(=O)N[C@H](Cc1nccs1)C(C)C)C(C)(C)C)C2(C)C` (stereo partly shown) [compound 4972] has a Ki of 76 to 250 nM.
